Assay results taken from PubChem BioAssay AID1508624 (National Center for Advancing Translational Sciences (NCATS), 2021).
About 120 (0.25%) of roughly 48,000 compounds were called active. Not shown: some 4% with an inconclusive outcome. The call rests on the fitted dose curve; in most records, active means well fitted activation curve with a large enough effect; inconclusive means small, poorly fitted or top-dose-only effect, or another doubt; inactive means no such curve, though single readings can be large or run the other way. Some of the results follow.

Test: Primary qHTS for Identification of Small Molecule Activators of Huntingtin-Antisense Promoter Activity; further: nearly all actives have a fitted effect of over 55% in size
Details: HEK293 HTT-AS promoter firefly luciferase reporter (activity 0% = vehicle and -100% = no light), 24 h; series mostly up to 57.5 µM; activity change, positive = activation: at the top concentration
Procedure, shortened: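 HEK293 Fluc reporter, 2,500 cells/well, 24 h pre-culture; cpds up to 57.5 uM final, 24 h 37 degrees C; Dual-Glo, 10 min RT; normalized vehicle = 0%, zero RLU = -100%.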

Activity change, positive = activation, inactive:
Cc1cccc(N(C)S(=O)(=O)c2ccc3c(c2)NC(=O)CC(=O)N3)c1 -5.17%
CCCN1CCCc2cc(CN(CCCN3CCOCC3)C(=O)Nc3ccc(Cl)c(Cl)c3)ccc21 -33.1%
COc1cccc(Cn2c(=O)n(Cc3ccccc3)c(=O)c3c2c2cc(OC)ccc2n3C)c1 -11.6%
CCOc1c(N2CCOCC2)cnn(C)c1=O -0.452%
Cc1cc2[nH]c(=O)c(=O)[nH]c2cc1S(=O)(=O)N1CCN(c2ccccc2F)CC1 -6.27%
COc1ccc2sc(N(Cc3cccnc3)C(=O)CCc3ccccc3)nc2c1 -34.4%
CCOC(=O)c1c(S(=O)(=O)N2CCC(C(=O)NCc3ccccc3Cl)CC2)c(C)n(C)c1C 10.5%
COCCn1ccc2c(OCC(=O)Nc3cccc(C(F)(F)F)c3)cccc2c1=O -21.2%
COc1cccc(CNC(=O)c2ccc3c(c2)sc2nc(-c4cccc(OC)c4)cn23)c1 24.5%
COc1ccc(N2CC(NC(=O)C(c3ccccc3)c3ccccc3)CC2=O)cc1 (stereo unspecified) -6.94%
CCOC(=O)c1ccc(NC(=O)Cn2nc(C)c3nn(-c4ccc(Cl)cc4)c(C)c3c2=O)cc1 -17.5%
CCc1nc2nc(C)cc(Nc3cc(C)ccc3C)n2n1 -19.1%
Cc1cccc(N2CCN(C(=O)c3cnn(-c4ccccc4)c3C3CCN(C(=O)OC(C)(C)C)CC3)CC2)c1C -4.83%
O=C(O)C1=CO[C@@H](O[C@@H]2O[C@H](CO)[C@H](O)[C@H](O)[C@H]2O)[C@@H]2C(CO)=CC[C@H]12 3.26%
CCOC(=O)c1c(NC(=O)C(C)Sc2cn(CCNC(=O)c3ccc(OCC)cc3)c3ccccc23)sc2c1CCC2 (stereo unspecified) -38.1%
Clc1ccc(CSc2nncn3c2cc2occc23)cc1 -22.3%
CC(c1cc2ccccc2s1)N(O)C(N)=O (stereo unspecified)
Cc1nc2nc[nH]n2c(=O)c1NS(=O)(=O)c1ccc(Br)cc1 -9.69%
CCC(=O)N1c2ccccc2CC1C(=O)NCCN1CCN(c2cc(Cl)ccc2C)CC1 (stereo unspecified) -33.2%
O=C(Cc1ccc(Cl)cc1)Nc1ccc2oc(-c3ccc(F)cc3)nc2c1 -20.1%
COC(=O)c1ccccc1NC(=O)C(Cc1ccccc1)N1Cc2ccccc2C1=O (stereo unspecified) -0.614%
Cc1cc(C)cc(OCC(=O)N2CCC(c3nc4ccccc4o3)CC2)c1 -14.6%
COc1ccc(C)cc1NC(=O)Cn1cc(S(=O)(=O)N2CCC(C)CC2)c2ccccc2c1=O -22.5%
CCOc1ccc(NC(=O)c2c(NCc3cc(OC)c(OC)cc3OC)sc3c2CCCC3)cc1 -16.8%
COc1ccc(NC(=O)Cn2c(-c3ccc(F)cc3)cc(C(C)=O)c2C)c(OC)c1 -11.1%
O=S(=O)(c1ccccc1)n1nc(-c2ccc(Cl)cc2)nc1NCc1ccccc1 10.8%
CC(=O)Nc1ccc(S(=O)(=O)NCC2CCC(C(=O)NCCc3ccc(C)cc3)CC2)cc1 (stereo unspecified) -14.5%
COc1ccc(CCNC(=O)Cn2c(=O)nc(-c3ccccc3)c3cc(Cl)ccc32)cc1OC -18.5%
CC(=O)c1cccc(NC(=O)c2ccc3c(c2)N(Cc2ccc(C)cc2)CCS3)c1 20.8%
N#C/C(=C\c1ccc(F)cc1)c1nc(-c2ccc(-c3ccccc3)cc2)cs1 7.24%
COCCCNc1nc2c(c(=O)[nH]c(=O)n2C)n1CC(O)COc1ccc(Cl)cc1 (stereo unspecified) -1.9%
COc1cccc(CC(=O)Nc2c(C(=O)N3CCN(c4ccccc4F)CC3)oc3ccccc23)c1 -29.5%
Cc1cc(C)c2c(=O)c3c(oc2c1)C(=O)N(CCCOC(C)C)C3c1ccccc1F (stereo unspecified) -13.5%
CCCC1=Nc2cc(C(=O)NC3CCCCC3)ccc2Sc2ccc(C)cc21 -39.6%
CC[C@@]1(O)C(=O)OCc2c1cc1n(c2=O)Cc2c-1nc1ccccc1c2/C=N/OC(C)(C)C -40.4%
COC(=O)c1c(NC(=O)c2ccc(C(C)(C)C)cc2)sc2c1CCC(C)C2 (stereo unspecified) -8.83%
CCN(C(=O)Cn1nc(Cc2ccncc2)c2ccccc2c1=O)c1ccc(OC)cc1 -8.75%
CCc1ccc(NC(=O)CNC(=O)Cn2c(C)cc3ccccc3c2=O)cc1 -16.1%
CCOc1ccc(CCNC(=O)c2ccc(CSCc3ccccc3C)o2)cc1OCC -39.7%
O=C(CSc1nc(=O)n(Cc2ccncc2)c2c1CCC2)Nc1cccc(F)c1 -31.7%
CCN(C(=O)C(NS(=O)(=O)c1ccc(Br)s1)c1ccccc1)c1ccc(C)c(C)c1 (stereo unspecified) -43.6%
CC1(C)CC(=O)c2cc(-c3nc(-c4ccc(F)cc4)cs3)c(=O)[nH]c2C1 -8.26%
CCC(=O)N1c2ccccc2C(C)(c2ccccc2)CC1(C)C (stereo unspecified) -3.88%
CN1CCN(C(=O)c2ccc3c(c2)N(Cc2ccc(F)cc2)C(=O)c2ccccc2S3=O)CC1 (stereo unspecified) -7.07%
CC(C)(C)OC(=O)N1CCC(c2c(C(=O)NCc3ccccc3)cnn2-c2ccc(F)cc2)CC1 -0.417%
O=C1Nc2cc(Cl)ccc2Oc2ccccc21 -15.3%
O=C(CSc1nc(-c2ccccc2)no1)N1CCN(c2ccccc2)CC1 -5.86%
CCOc1ccccc1NC(=O)c1cc(S(=O)(=O)N2CCOCC2)cn1C -14.2%
CCN1CCc2c(sc(-n3cccc3)c2C(C)NC(=O)Nc2cc(Cl)c(OC)cc2OC)C1 (stereo unspecified) -0.554%
Cc1ccc(NC(=O)c2cc(S(=O)(=O)N3CCCCCC3)ccc2F)cc1F -29.2%
CCCNC(=O)c1cnn2c(C(F)F)cc(-c3ccccc3)nc12 -17.4%
Cc1sc2c(c1C)c(=O)n(Cc1ccccc1)c(=O)n2CC(=O)N(C)c1ccccc1 7.65%
CC1(C)CC(=O)c2cc(-c3nc(-c4ccc(Cl)cc4)cs3)c(=O)[nH]c2C1 -3.97%
O=C(COc1cccc(Cl)c1)N1CCC(c2nc3ccccc3o2)CC1 -21.7%
CCOc1ccc(NC(=O)CSc2nc3c([nH]c4ccccc43)c(=O)n2-c2cc(C)cc(C)c2)cc1 -14.5%
O=C(NCc1ccccc1Cl)C1CCCN(C(=O)c2cnn(-c3ccc(F)cc3)c2-n2cccc2)C1 (stereo unspecified) -38.7%
Cc1cccc(N2CCN(C(=O)c3cnc4c(C)cccn4c3=O)CC2C)c1 (stereo unspecified) -1.9%
Cc1nc2c(-c3ccccc3)c(C)nn2c(C)c1CCC(=O)NCCc1ccccc1 -4.99%
CC(C)c1ccc(NC(=O)N2CCN(c3ccc(Cl)c(Cl)c3)CC2)cc1 -41.5%
NCCc1ccn[nH]1 -6.21%
CCOC(=O)c1c(C)oc2c1cc(NS(=O)(=O)c1ccc(C)cc1)c1ccccc12 -17.8%
